# Data: the supplement of paper PMC12645437, “Orthogonal IMiD-Degron Pairs Induce Selective Protein Degradation in Cells” (ACS Chemical Biology, 2025)
# The other results are listed elsewhere or left out.
# B1: Q9UKT9 (peptide)
# chain: FVCDICGAWFTQKGNLLRHIKL
# B2: Q9UKT9 (peptide)
# chain: FDCDICGANFTQKGNLLRHIKL
# B3: Q9UKT9 (peptide)
# chain: LTCPICGFSCTQKGNLLRHIKL
# B4: Q9UKT9 (peptide)
# chain: FTCPVCGAFFTQKGNLLRHIKL
# B5: Q9UKT9 (peptide)
# chain: FSCEICGAGFTQKGNLLRHIKL
# B6: Q9UKT9 (peptide)
# chain: FCCDQCGAHFTQKGNLLRHIKL
# B7: Q9UKT9 (peptide)
# chain: FECPICGRSFTQKGNLLRHIKL
# B8: Q9UKT9 (peptide)
# chain: FWCNICGAKFTQKGNLLRHIKL
# B9: Q9UKT9 (peptide)
# chain: FTCNICGAYFTQKGNLLRHIKL
# B10: Q9UKT9 (peptide)
# chain: FKCEQCGADFTQKGNLLRHIKL
# B11: Q9UKT9 (peptide)
# chain: FVCPICGRTFTQKGNLLRHIKL
# B12: Q9UKT9 (peptide)
# chain: FQCPICGRWFTQKGNLLRHIKL
# B13: Q9UKT9 (peptide)
# chain: FGCPICGRCFTQKGNLLRHIKL
# B14: Q9UKT9 (peptide)
# chain: FSCEICGHFFTQKGNLLRHIKL
# B15: Q9UKT9 (peptide)
# chain: FICEICGHGFTQKGNLLRHIKL
# B16: Q9UKT9 (peptide)
# chain: FYCPICGARFTQKGNLLRHIKL
# B17: Q9UKT9 (peptide)
# chain: FNCNQCGRHFTQKGNLLRHIKL
# B18: Q9UKT9 (peptide)
# chain: FSCEVCGANFTQKGNLLRHIKL
# B19: Q9UKT9 (peptide)
# chain: LVCPICGFNCTQKGNLLRHIKL
# B20: Q9UKT9 (peptide)
# chain: LQCEICGFACTQKGNLLRHIKL
# B21: Q9UKT9 (peptide)
# chain: FDCNQCGAWFTQKGNLLRHIKL
# B22: Q9UKT9 (peptide)
# chain: FTCNQCGAIFTQKGNLLRHIKL
# B23: Q9UKT9 (peptide)
# chain: FFCPVCGAKFTQKGNLLRHIKL
# B24: Q9UKT9 (peptide)
# chain: FECPQCGAVFTQKGNLLRHIKL
# B25: Q9UKT9 (peptide)
# chain: FWCPQCGAQFTQKGNLLRHIKL
# B26: Q9UKT9 (peptide)
# chain: FYCPICGRDFTQKGNLLRHIKL
# B27: Q9UKT9 (peptide)
# chain: FYCNQCGANFTQKGNLLRHIKL
# B28: Q9UKT9 (peptide)
# chain: FACEICGHAFTQKGNLLRHIKL
# B29: Q9UKT9 (peptide)
# chain: FTCEICGRQFTQKGNLLRHIKL
# B30: Q9UKT9 (peptide)
# chain: LDCNQCGFPCTQKGNLLRHIKL
# B31: Q9UKT9 (peptide)
# chain: FSCNVCGAPFTQKGNLLRHIKL
# B32: Q9UKT9 (peptide)
# chain: FYCDICGAYFTQKGNLLRHIKL
# B33: Q9UKT9 (peptide)
# chain: FACDQCGATFTQKGNLLRHIKL
# B34: Q9UKT9 (peptide)
# chain: LDCPICGFCCTQKGNLLRHIKL
# B35: Q9UKT9 (peptide)
# chain: FNCEQCGACFTQKGNLLRHIKL
# B36: Q9UKT9 (peptide)
# chain: FKCDQCGARFTQKGNLLRHIKL
# B37: Q9UKT9 (peptide)
# chain: FECPICGRDFTQKGNLLRHIKL
# B38: Q9UKT9 (peptide)
# chain: FRCPICGARFTQKGNLLRHIKL
# B39: Q9UKT9 (peptide)
# chain: FYCEQCGANFTQKGNLLRHIKL
# B40: Q9UKT9 (peptide)
# chain: FRCPICGAVFTQKGNLLRHIKL
# B41: Q9UKT9 (peptide)
# chain: FDCDVCGARFTQKGNLLRHIKL
# B42: Q9UKT9 (peptide)
# chain: FACPVCGAHFTQKGNLLRHIKL
# B43: Q9UKT9 (peptide)
# chain: FDCNQCGHTFTQKGNLLRHIKL
# B44: Q9UKT9 (peptide)
# chain: FWCNVCGAYFTQKGNLLRHIKL
# B45: Q9UKT9 (peptide)
# chain: FACDQCGALFTQKGNLLRHIKL
# B46: Q9UKT9 (peptide)
# chain: FDCDICGAAFTQKGNLLRHIKL
# B47: Q9UKT9 (peptide)
# chain: FKCEVCGACFTQKGNLLRHIKL
# B48: Q9UKT9 (peptide)
# chain: FACNQCGAVFTQKGNLLRHIKL
# B49: Q9UKT9 (peptide)
# chain: FECNVCGAVFTQKGNLLRHIKL
# B50: Q9UKT9 (peptide)
# chain: FTCNQCGHGFTQKGNLLRHIKL
# Target: no compound (DMSO)
# Assay: log2 fold change of degron read counts, EGFP-low vs EGFP+ sorted cells; higher = lower degron-EGFP level without compound (poor expression or instability)
# Conditions: compound: DMSO control; 18 h
# 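Also: jurkat cells carrying a lentiviral library of mutant zinc finger degrons fused to EGFP plus mCherry, mCherry+ cells FACS sorted, degron abundance counted by next-generation sequencing.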
row,Sequence,log2 fold change of degron read counts
1,B1,-1.13
2,B2,-0.811
3,B3,0.354
4,B4,0.468
5,B5,-1.33
6,B6,-2.36
7,B7,-0.123
8,B8,-0.301
9,B9,0.228
10,B10,-2.37
11,B11,-0.329
12,B12,0.887
13,B13,0.0055
14,B14,-0.134
15,B15,-1.87
16,B16,-1.24
17,B17,0.673
18,B18,-2.47
19,B19,0.883
20,B20,-0.391
21,B21,1.37
22,B22,-0.546
23,B23,-0.681
24,B24,-1.54
25,B25,0.152

row,Sequence,log2 fold change of degron read counts
1,B26,-0.414
2,B27,0.0955
3,B28,-2.48
4,B29,-1.61
5,B30,0.275
6,B31,0.31
7,B32,0.179
8,B33,-1.33
9,B34,0.405
10,B35,-2.27
11,B36,-1.62
12,B37,-0.349
13,B38,-0.0707
14,B39,-1.81
15,B40,0.13
16,B41,-1.04
17,B42,0.0313
18,B43,-0.0989
19,B44,1.37
20,B45,-1.15
21,B46,-1.46
22,B47,-2.28
23,B48,-0.231
24,B49,-2.59
25,B50,-0.675
